The other results are listed elsewhere or left out. The full chains were built here from the parent and the listed change. Inactive controls read about 0.05.
B1: TEV protease; numbered along this chain (parent)
chain: MGESLFKGPRDYNPISSSICHLTNESDGHTTSLYGIGFGPFIITNKHLFRRNNGTLVVQSLHGVFKVKDTTTLQQHLVDGRDMIIIRMPKDFPPFPQKLKFREPQREERICLVTTNFQTKSMSSMVSDTSCTFPSGDGIFWKHWIQTKDGQCGSPLVSTRDGFIVGIHSASNFTNTNNYFTSVPKNFMELLTNQEAQQWVSGWRLNADSVLWGGHKVFMVKPEEPFQPVKEATQL

Variants of: B1
Assay: raw area under fraction-flipped curve 0-4 h after induction (AUC4h, not background-subtracted), DNA-recorder readout of cleavage of the substrate (dimensionless); higher = more cleavage of the substrate by the protease variant
Conditions: temperature: 34 °C; time window: 0-4 h after rhamnose induction
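Further: Bxb1 expression induced with 0.2% (w/v) L-rhamnose at OD600 near 0.5, cultures sampled hourly, flipped fraction per protease–substrate barcode pair counted by paired-end Illumina sequencing.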

| Variant | area with substrate ENLYDQS | area with substrate ENLYEQS | area with substrate ENLYGQS | area with substrate ENLYHQS | area with substrate ENLYMQS | area with substrate ENLYNQS | area with substrate ENLYPQS | area with substrate ENLYQQS | area with substrate ENLYRQS | area with substrate ENLYSQS | area with substrate ENLYTQS | area with substrate ENLYVQS | area with substrate ENLYWQS | area with substrate ENLYKQS | area with substrate ENLYIQS | area with substrate ENLYLQS | area with substrate ENLYYQS |
| --- | --- | --- | --- | --- | --- | --- | --- | --- | --- | --- | --- | --- | --- | --- | --- | --- | --- |
| V126G | 0.0703 | 0.134 | 0.0738 | 0.0785 | 0.0877 | 0.0381 | 0.0688 | 0.0488 | 0.0476 | 0.0753 | 0.0811 | 0.146 | 0.0998 | – | – | – | – |
| K185P | 0.0619 | 0.0606 | – | 0.0147 | 0.0789 | – | 0.0268 | – | – | 0.0698 | 0.0779 | – | – | 0.0317 | – | – | – |
| D149Q | 0.0661 | – | 0.0863 | 0.0584 | – | – | 0.0646 | 0.0563 | 0.0672 | – | 0.0607 | 0.106 | 0.0698 | 0.0243 | 0.127 | – | – |
| G153N | 0.0468 | 0.0547 | 0.0476 | 0.0591 | 0.0566 | – | 0.0458 | 0.0344 | – | – | – | 0.0661 | – | 0.0515 | 0.0448 | – | – |
| Q118A | 0.064 | 0.0699 | 0.107 | 0.0701 | 0.0716 | 0.0674 | 0.07 | 0.0639 | 0.05 | 0.0812 | – | 0.132 | 0.0855 | – | 0.139 | 0.0813 | 0.0612 |
| Q118F | 0.0586 | 0.0903 | – | 0.0439 | 0.0917 | 0.0635 | – | 0.0577 | 0.057 | 0.078 | 0.0821 | 0.124 | – | 0.0476 | – | – | 0.06 |
| T72P | 0.0491 | 0.0542 | – | 0.071 | – | 0.05 | 0.0481 | 0.042 | 0.0595 | – | 0.0633 | 0.0815 | 0.0679 | 0.0527 | 0.0881 | 0.054 | – |
| K66F | 0.0607 | 0.0708 | 0.0664 | 0.0946 | 0.0969 | 0.0645 | – | 0.0661 | 0.0527 | 0.0798 | 0.0609 | – | 0.0819 | 0.0446 | 0.123 | – | 0.0697 |
| S169N | 0.0626 | 0.0681 | 0.0583 | 0.0622 | – | – | 0.0582 | 0.051 | 0.0636 | 0.053 | – | 0.0861 | 0.049 | 0.0737 | 0.0678 | 0.0806 | 0.0355 |
| I110H | 0.0517 | 0.0598 | 0.0549 | – | 0.0519 | 0.0621 | 0.052 | 0.0376 | – | 0.0642 | – | 0.0407 | 0.053 | 0.0489 | 0.0507 | – | – |
| F95S | 0.062 | 0.0593 | 0.0806 | 0.0592 | 0.0749 | 0.0622 | 0.0695 | – | – | – | 0.0815 | 0.0701 | 0.0763 | 0.0396 | 0.106 | – | 0.0514 |
| W203R | 0.0706 | 0.0444 | 0.0709 | 0.0671 | 0.064 | 0.0593 | 0.0613 | – | 0.0572 | – | – | – | 0.083 | – | – | – | – |
| S135D | 0.0715 | 0.102 | – | 0.0582 | – | – | 0.0621 | 0.0643 | 0.0572 | 0.0691 | – | – | 0.0729 | – | – | 0.0714 | 0.0676 |
| Q197C | 0.0475 | 0.0639 | 0.078 | 0.0757 | 0.107 | 0.0444 | 0.0675 | – | 0.0635 | 0.0684 | – | 0.0834 | 0.0779 | 0.0563 | 0.089 | – | – |
| E195C | 0.0637 | 0.067 | 0.0637 | 0.0719 | 0.0688 | 0.0893 | – | 0.059 | 0.0589 | 0.0767 | 0.0796 | 0.119 | – | 0.0533 | – | – | 0.0583 |
| W144Q | 0.0513 | 0.0728 | – | 0.237 | – | – | – | – | – | 0.0545 | 0.0645 | 0.0869 | 0.0686 | 0.0581 | 0.0764 | – | 0.0636 |
| W144T | 0.0621 | 0.0596 | 0.0736 | – | – | 0.0697 | – | – | – | 0.0744 | 0.0854 | 0.0833 | – | – | – | – | 0.0729 |
| I164E | 0.0475 | 0.0505 | 0.0805 | 0.0574 | 0.0508 | 0.056 | 0.0441 | 0.0425 | 0.0652 | 0.0578 | 0.0555 | – | – | 0.0492 | 0.042 | 0.0531 | 0.0255 |
| I164H | 0.0617 | 0.061 | 0.0585 | 0.052 | 0.0543 | 0.056 | 0.0452 | 0.0351 | – | – | – | 0.06 | 0.0472 | 0.0423 | 0.0478 | – | – |
| V67R | 0.0517 | 0.0565 | – | – | 0.064 | 0.0536 | 0.0591 | – | 0.0511 | 0.0576 | – | – | 0.0647 | 0.056 | 0.0689 | – | – |
| L77T | 0.0721 | 0.0676 | – | 0.0718 | 0.0599 | 0.0913 | – | – | 0.0645 | 0.0693 | 0.0698 | 0.0741 | – | 0.0545 | 0.0829 | 0.0672 | – |
| V165D | 0.0613 | 0.0687 | 0.034 | 0.051 | 0.0442 | 0.0546 | 0.0664 | 0.0668 | 0.0379 | 0.0655 | 0.0395 | 0.053 | 0.0569 | 0.0531 | 0.0558 | – | – |
| I86F | 0.0611 | – | 0.0641 | 0.065 | 0.0734 | 0.0477 | 0.0841 | 0.0506 | 0.0671 | 0.0614 | – | 0.115 | 0.0711 | 0.0704 | – | – | – |
| I86R | 0.0519 | 0.0259 | 0.0366 | 0.0343 | 0.0433 | 0.0396 | 0.0396 | 0.0426 | 0.0255 | 0.037 | – | – | – | 0.0162 | – | – | 0.0486 |
| L156K | 0.0811 | 0.0551 | 0.0645 | 0.0372 | 0.0517 | 0.0511 | – | 0.0321 | 0.0526 | 0.0617 | – | – | 0.0528 | 0.0634 | 0.0434 | – | – |
| Q105T | 0.0511 | 0.0593 | 0.064 | 0.0706 | 0.0822 | 0.077 | 0.0756 | 0.0764 | 0.0759 | 0.0648 | 0.0853 | 0.14 | 0.0673 | 0.0642 | – | 0.0681 | – |
| T129P | 0.0632 | 0.0963 | 0.0623 | 0.0751 | 0.0778 | 0.08 | 0.0841 | 0.0407 | 0.0644 | 0.0695 | – | – | 0.0765 | 0.0554 | 0.131 | 0.0837 | – |
| F65R | 0.0553 | 0.147 | 0.0724 | – | – | 0.0903 | 0.0799 | 0.0602 | – | 0.0728 | 0.0681 | – | 0.0636 | 0.0598 | 0.0816 | – | 0.0691 |
